Experimental data: the supplement of paper PMC4604168 (melanoma cell lines)
The other results are listed elsewhere or left out. Most values come without repeats; read them as rough.

What was measured:
Assay in all cases: cell count relative to DMSO control; melanoma cells; higher = more viable cells
Settings in all cases: library dose: low library concentration; 72 h
WM115 = system: WM115
WM1716 = system: WM1716
WM1745 = system: WM1745
WM3526 = system: WM3526
WM3619 = system: WM3619
WM451Lu = system: WM451Lu
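Note: cell number obtained by counting DAPI-stained nuclei in high-throughput microscope images with image analysis software, screen run in 1,536-well plates.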

Structure (SMILES)	cell count (WM115) [%]	cell count (WM1716) [%]	cell count (WM1745) [%]	cell count (WM3526) [%]	cell count (WM3619) [%]	cell count (WM451Lu) [%]
O=C(O)c1ccc(-c2c[nH]c3ncc(-c4ccccc4)cc23)cc1C1CCCC1 + CN(NC(=O)CC(=O)NN(C)C(=S)c1ccccc1)C(=S)c1ccccc1 [STA4783] (first compound 0.16 µM, partner dose 0.006 µM)	64.5	81.6	45.6	81.5	46.7	86.9
O=C(Nc1cccc(Cl)c1)Nc1ncc(CCNc2ncnc3ccsc23)s1 + Cn1cc(/C=C2\C(=O)Nc3cccnc32)c2ccccc21 [GW441756] (first compound 0.0008 µM, partner dose 0.4 µM)	87.3	124	96.9	112	102	117
COc1cc(Nc2ncc(F)c(Nc3ccc4c(n3)NC(=O)C(C)(C)O4)n2)cc(OC)c1OC [Tamatinib] + CC(C)CCN1c2nc(Nc3cc(F)c(O)c(F)c3)ncc2N(C)C(=O)C1C [BID1870] (first compound 0.4 µM, partner dose 0.2 µM)	74.1	94.2	68	81.8	86	88.7
COc1cc(Nc2ncc(F)c(Nc3ccc4c(n3)NC(=O)C(C)(C)O4)n2)cc(OC)c1OC [Tamatinib] + O=C(O)c1ccc(-c2c[nH]c3ncc(-c4ccccc4)cc23)cc1C1CCCC1 [GSK650394] (first compound 0.4 µM, partner dose 0.16 µM)	94.1	92	80.3	81.6	107	88.2
O=c1[nH]nc(Sc2ncc([N+](=O)[O-])s2)n1-c1ccc2c(c1)OCCO2 + Cn1c(Nc2ccc(C(F)(F)F)cc2)nc2cc(Oc3ccnc(-c4ncc(C(F)(F)F)[nH]4)c3)ccc21 [CHIR265] (first compound 0.2 µM, partner dose 0.08 µM)	67.3	91.5	73	63.5	91.7	92.3
O=c1[nH]nc(Sc2ncc([N+](=O)[O-])s2)n1-c1ccc2c(c1)OCCO2 + Cn1cnc2c(F)c(Nc3ccc(Br)cc3Cl)c(C(=O)NOCCO)cc21 [selumetinib] (first compound 0.2 µM, partner dose 0.015 µM)	99.2	92.6	88.6	84	63.2	101
C[C@@H]1CCN(C(=O)CC#N)C[C@@H]1N(C)c1ncnc2[nH]ccc12 + Cn1cc(/C=C2\C(=O)Nc3cccnc32)c2ccccc21 [GW441756] (first compound 1 µM, partner dose 0.4 µM)	102	118	89.2	133	108	118
O=C(O)c1ccc(-c2c[nH]c3ncc(-c4ccccc4)cc23)cc1C1CCCC1 + CCCCCCCCCCCC1=C(O)C(=O)C=C(O)C1=O [Embelin] (first compound 0.16 µM, partner dose 1.2 µM)	94.2	107	105	98.8	104	103
Cn1cncc1[C@@](N)(c1ccc(Cl)cc1)c1ccc2c(c1)c(-c1cccc(Cl)c1)cc(=O)n2C [tipifarnib] + Cc1cc([N+](=O)[O-])ccc1NS(=O)(=O)c1cc(Cl)ccc1Cl [FH535] (first compound 0.01 µM, partner dose 1 µM)	82.3	75.7	87.1	81.2	62.9	87.9
Cn1cncc1[C@@](N)(c1ccc(Cl)cc1)c1ccc2c(c1)c(-c1cccc(Cl)c1)cc(=O)n2C [tipifarnib] + CCN(CC)CCCCNc1ncc2cc(-c3cc(OC)cc(OC)c3)c(NC(=O)NC(C)(C)C)nc2n1 [PD173074] (first compound 0.01 µM, partner dose 0.1 µM)	96.1	84.9	97	92.1	103	95.4
O=c1[nH]nc(Sc2ncc([N+](=O)[O-])s2)n1-c1ccc2c(c1)OCCO2 + CS(=O)(=O)c1ccc(C(=O)Nc2ccc(Cl)c(-c3ccccn3)c2)c(Cl)c1 [vismodegib] (first compound 0.2 µM, partner dose 1 µM)	104	110	114	95.1	127	104
C[C@@H]1CCN(C(=O)CC#N)C[C@@H]1N(C)c1ncnc2[nH]ccc12 + CCN(CC)CCCCNc1ncc2cc(-c3cc(OC)cc(OC)c3)c(NC(=O)NC(C)(C)C)nc2n1 [PD173074] (first compound 1 µM, partner dose 0.1 µM)	92.9	110	97.5	107	114	113
O=c1[nH]nc(Sc2ncc([N+](=O)[O-])s2)n1-c1ccc2c(c1)OCCO2 + CC(=O)O[C@@]12CO[C@@H]1C[C@H](O)[C@@]1(C)C(=O)[C@H](O)C3=C(C)[C@@H](OC(=O)[C@H](O)[C@@H](NC(=O)OC(C)(C)C)c4ccccc4)C[C@@](O)([C@@H](OC(=O)c4ccccc4)[C@H]21)C3(C)C [Docetaxel] (first compound 0.2 µM, partner dose 0.0001 µM)	64.5	54.7	58.7	43.5	74.1	66.4
